Test results: PubChem BioAssay AID2100 (National Center for Advancing Translational Sciences (NCATS), 2009)
Where “and” joins values, the source holds several entries; their conditions need not be identical. Identical values can stand only once. The campaign covered roughly 300,000 compounds. About 1,200 (0.4%) were called active. The inconclusive results got no clear call from the source; some entries with a clear call stand among them for comparison. Calls come from the whole dose curve; as a rule, active = well fitted inhibition curve with a large enough effect; inconclusive = small, poorly fitted or top-dose-only effect, or another doubt; inactive = no such curve, though single readings can be large or run the other way. Potencies beside an inconclusive call are fits to weak or partial responses and may not hold up. More than one record can exist for a structure, and the calls need not agree.
Potency is the fitted concentration of half-maximal effect.

The compounds below were run against Lysosomal alpha-glucosidase (Homo sapiens) (UniProt P10253) (assay: qHTS Assay for Inhibitors and Activators of Human alpha-Glucosidase Cleavage of Glycogen). Conditions: recombinant GAA, glycogen substrate, Amplex Red glucose oxidase fluorescence; series mostly up to 76.4 µM.
How it was run: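 qHTS, 1536-well; enzyme 4 nM final; cpd up to 77 uM; substrate bovine liver glycogen 30 ug; 50 mM citrate/phosphate pH 5.0, 0.01% Tween-20; 37 C, 40 min; Amplex Red detection 45 min RT; Hill fit → AC50.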
In the case of `O=C(Nc1ccc(F)cc1)C(c1ccccc1)N1CCN(S(=O)(=O)c2ccc3ccccc3c2)CC1` (centres undefined), the Potency was “inactive”. For `CC1(C)CC(=O)C2=C(C1)Nc1cc3c(cc1C2c1ccc(F)cc1)OCO3` (centres undefined), the Potency was inconclusive: 19.8 µM [inhibitor, partial curve]. In the case of `Nc1ccc(OC(=O)Nc2ccc(O)cc2)cc1`, the Potency was inconclusive: 9.92 µM [inhibitor, single point]. With `N#CC1=C(N)NC(=S)C(C(N)=O)C1c1ccc([N+](=O)[O-])cc1` (centres undefined) the Potency was inconclusive: 3.16 µM [inhibitor, full curve, poor fit]. In the case of `CCc1cc2c(=O)oc(-c3ccc(F)cc3)nc2s1`, the Potency was “inactive”. For `COc1cc(/C=C/C(=O)c2ccc(Cl)s2)cc(OC)c1O`, the Potency was inconclusive: 31.4 µM [inhibitor, single point]. With `C(=N\Nc1nc2ccccc2[nH]1)/c1ccccn1` the Potency was inconclusive: 20 µM [inhibitor, partial curve]. With `CN1CCN(CC(O)c2ccccc2)CC1` (centres undefined) the Potency was inconclusive: 49.7 µM [inhibitor, partial curve, poor fit]. For `O=C(CSc1cn(CCNC(=O)c2cccs2)c2ccccc12)NCc1ccccc1`, the Potency was inconclusive: 28.2 µM [inhibitor, single point]. With `Cc1cc(=O)oc2c(C)c(OC(C)C(=O)NC(Cc3c[nH]c4ccc(O)cc34)C(=O)O)ccc12` (centres undefined) the Potency was inconclusive: 11.2 µM [inhibitor, full curve]. For `COc1ccc(NC(=O)/C=C/C(=O)O)c(OC)c1`, the Potency was inconclusive: 17.6 µM [inhibitor, single point]. In the case of `COc1ccc(/C=C\c2onc(C)c2S(=O)(=O)N2CCC(C(=O)Nc3ccccc3OC)CC2)cc1`, the Potency was “inactive”. `CCOC(=O)C(=NC1CCS(=O)(=O)C1)NNc1cc(Cl)ccc1Cl` (centres undefined) was tested, and the Potency was inconclusive: 20 µM [inhibitor, partial curve]. For `O=c1c(-c2cccc(Cl)c2)c[nH]n1-c1ccccc1`, the Potency was inconclusive: 31.6 µM [inhibitor, single point]. In the case of `CCOC(=O)NC1(Nc2ccc(C)cc2)Oc2ccccc2O1`, the Potency was inconclusive: 2.8 µM [inhibitor, full curve]. With `CCC(=O)N1N=C(c2ccc(C)o2)CC1c1ccc(N(C)C)cc1` (centres undefined) the Potency was inconclusive: 25.1 µM [inhibitor, partial curve]. For `COc1ccc(/C=N/Nc2ccccn2)cc1O`, the Potency was inconclusive: 14.1 µM [inhibitor, partial curve]. For `CC1=NN(c2cccc(Cl)c2)C(=O)C1`, the Potency was inconclusive: 44.7 µM [inhibitor, single point]. `Cc1ccc(/C=C2/NC(=O)N(Cc3ccc(Br)cc3)C2=O)o1` was tested, and the Potency was “inactive”. `Cc1cc(C)c2ccc(/C=N/O)nc2c1O` was tested, and the Potency was inconclusive: 14.1 µM [inhibitor, partial curve]. With `CN(C)c1ccc(NC(=O)CSc2nc(N)c(C(=O)Nc3ccc(N(C)C)cc3)s2)cc1` the Potency was inconclusive: 15.8 µM [inhibitor, partial curve]. `C[C@H](NC(=O)C1CCN(C(=O)[C@H](Cc2ccccc2)NC(=O)OC(C)(C)C)CC1)C(=O)O` was tested, and the Potency was “inactive”. With `C/C(CC(=O)Nc1ccc(Cl)cc1Cl)=N\NC(=O)c1cnccn1` the Potency was inconclusive: 5.01 µM [inhibitor, full curve]. In the case of `O=C1CC(c2nc3ccccc3[nH]2)CN1c1cccc(Cl)c1` (centres undefined), the Potency was inconclusive: 11.2 µM [inhibitor, partial curve]. For `NNc1ccc(Cl)nn1`, the Potency was inconclusive: 3.55 µM [inhibitor, full curve]. For `CCc1nnc(N/N=C/c2c(C)[nH]c3ccccc23)n1N`, the Potency was active: 7.94 µM. In the case of `O=C(O)c1ccc(N/N=C/c2cc(Br)cs2)cc1`, the Potency was inconclusive: 1.76 µM [inhibitor, partial curve]. With `COc1ccc(-c2nn(-c3ccccc3)cc2/C=N/Nc2ccc3ccccc3n2)cc1OC` the Potency was inconclusive: 25.1 µM [inhibitor, partial curve]. For `Cc1c(O)ccc(NC(=O)/C=C/c2ccccc2)c1C`, the Potency was inconclusive: 39.8 µM [inhibitor, single point]. `Cn1c(-c2ccc3c(c2)OCO3)cnc1NCc1cccc(O)c1` was tested, and the Potency was inconclusive: 11.2 µM [inhibitor, partial curve]. With `CCOC(=O)C(Sc1cc(C)nc(N)n1)C(C)=O` (centres undefined) the Potency was inconclusive: 31.6 µM [inhibitor, single point]. For `CCOC(=O)c1ccc(N2C(=O)CC(Nc3ccc(CCO)cc3)C2=O)cc1` (centres undefined), the Potency was inconclusive: 44.3 µM [inhibitor, partial curve, poor fit]. For `CCOc1cc(CNc2ccc(O)cc2)ccc1OCc1ccc(Cl)cc1Cl`, the Potency was inconclusive: 25.1 µM [activator, single point]. `O=C(CCS(=O)(=O)c1ccccc1)NCc1ccccc1` was tested, and the Potency was “inactive”. With `Oc1ccc(NC(=S)Nc2ccccc2)cc1` the Potency was “inactive and active: 11.1 µM”. With `CCc1nc2ccccc2n1CCCCOc1ccc(C)cc1` the Potency was inconclusive: 11.2 µM [inhibitor, single point]. `COc1ccc(OCCn2cc(/C(N)=N/O)c3ccccc32)cc1` was tested, and the Potency was active: 12.5 µM. For `O=S(=O)(Nc1c(S(=O)(=O)c2ccccc2)c2nc3ccccc3nc2n1C1CCCCC1)c1ccccc1`, the Potency was “inactive”. `COc1ccc(-c2ccc(=O)n(CC(=O)Nc3ccc(C(=O)NC4CC4)cc3)n2)cc1OC` was tested, and the Potency was “inactive”. In the case of `O=c1[nH]ncc(N/N=C\c2ccc(O)cc2O)c1Cl`, the Potency was active: 2.49 µM. `Clc1ccc(-c2csc(N/N=C/c3ccco3)n2)cc1` was tested, and the Potency was inconclusive: 15.8 µM [inhibitor, partial curve]. `Cn1c(=O)[nH]c(=O)c2c1nc(N1CCCCC1)n2C/C=N/Nc1ccc(C(=O)O)cc1` was tested, and the Potency was inconclusive: 11.2 µM [inhibitor, partial curve]. With `O=C(Nc1ccc(O)cc1)N1CCOCC1` the Potency was inconclusive: 39.8 µM [inhibitor, single point]. For `COc1cc(/C=N/NC(=O)c2cccc([N+](=O)[O-])c2)ccc1O`, the Potency was inconclusive: 11.1 µM [inhibitor, partial curve].
